In paper PMC10987609:
Results are given in words; binding and its absence hold for the method and conditions named. For some assays here: Binding seen in cells or lysates may run through a third protein. Some binding calls cover weakened binding; strength is not graded here.

Protein sequences, listed by entry. Tags and fused reporters are not part of them. Lines headed by an entry give the natural chain unless they say otherwise; changes in a name come on top.
UniProt Q9NS91: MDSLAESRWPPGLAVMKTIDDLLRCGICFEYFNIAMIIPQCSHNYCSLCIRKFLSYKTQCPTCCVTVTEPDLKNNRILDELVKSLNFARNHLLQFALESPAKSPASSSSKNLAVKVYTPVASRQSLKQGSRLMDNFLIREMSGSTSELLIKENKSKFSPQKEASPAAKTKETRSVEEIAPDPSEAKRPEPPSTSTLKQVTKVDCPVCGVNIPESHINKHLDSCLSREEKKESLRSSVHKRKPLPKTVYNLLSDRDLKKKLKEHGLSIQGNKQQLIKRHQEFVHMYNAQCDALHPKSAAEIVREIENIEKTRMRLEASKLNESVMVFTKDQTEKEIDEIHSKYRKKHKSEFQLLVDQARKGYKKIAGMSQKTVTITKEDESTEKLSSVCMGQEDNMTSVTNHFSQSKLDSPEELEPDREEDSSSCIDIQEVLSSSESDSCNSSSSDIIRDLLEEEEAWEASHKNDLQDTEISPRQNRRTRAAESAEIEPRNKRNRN
UniProt P12004: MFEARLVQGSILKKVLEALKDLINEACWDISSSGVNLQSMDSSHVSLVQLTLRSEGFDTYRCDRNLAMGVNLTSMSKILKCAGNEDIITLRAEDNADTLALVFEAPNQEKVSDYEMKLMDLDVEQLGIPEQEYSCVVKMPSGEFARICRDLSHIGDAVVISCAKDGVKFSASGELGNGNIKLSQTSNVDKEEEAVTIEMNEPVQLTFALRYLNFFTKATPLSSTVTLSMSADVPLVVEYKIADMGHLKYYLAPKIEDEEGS
UniProt P27694: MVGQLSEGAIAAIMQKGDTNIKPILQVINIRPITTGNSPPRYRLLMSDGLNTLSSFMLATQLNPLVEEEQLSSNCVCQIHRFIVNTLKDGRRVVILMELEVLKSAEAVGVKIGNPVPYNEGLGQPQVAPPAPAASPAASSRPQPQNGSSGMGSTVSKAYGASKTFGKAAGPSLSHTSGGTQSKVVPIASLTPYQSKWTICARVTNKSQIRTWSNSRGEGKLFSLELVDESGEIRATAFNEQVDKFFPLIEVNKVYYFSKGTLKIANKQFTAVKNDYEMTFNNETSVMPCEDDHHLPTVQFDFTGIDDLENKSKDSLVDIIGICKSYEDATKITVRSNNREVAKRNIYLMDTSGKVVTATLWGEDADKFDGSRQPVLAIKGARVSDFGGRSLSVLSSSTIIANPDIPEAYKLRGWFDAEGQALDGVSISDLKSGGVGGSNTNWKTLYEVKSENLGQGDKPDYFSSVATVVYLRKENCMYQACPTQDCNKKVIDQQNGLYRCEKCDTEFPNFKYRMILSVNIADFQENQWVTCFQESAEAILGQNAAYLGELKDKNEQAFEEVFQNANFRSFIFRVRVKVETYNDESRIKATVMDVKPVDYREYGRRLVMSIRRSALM

Tests used:
[1] = biological target: His-sumo-tagged wild-type human Rad18 (human) (UniProt Q9NS91); assay: pull-down; His-sumo-tagged Rad18 bound to cobalt agarose, incubated with HEK293T cell lysate; NETN buffer without EDTA, 5 mM imidazole, 300 mM NaCl, 4 °C, 45 min; immunoblot; only the target purified
[2] = biological target: His-sumo-tagged human Rad18 S403E (human) (UniProt Q9NS91); assay: as above
[3] = biological target: SFB-tagged wild-type Rad18 (human) (UniProt Q9NS91); assay: co-IP; HEK293T cells transfected with SFB-tagged Rad18 or SLX4 (wild type or mutants), lysed 24 h later in NETN buffer, precipitated with S beads; western blot (Fig. 3F, Fig. 5C)
[4] = biological target: SFB-tagged Rad18 S403E (human) (UniProt Q9NS91); assay: as above
[5] = biological target: His-sumo-tagged human Rad18 S403A (human) (UniProt Q9NS91); assay: pull-down; His-sumo-tagged Rad18 bound to cobalt agarose, incubated with HEK293T cell lysate; NETN buffer without EDTA, 5 mM imidazole, 300 mM NaCl, 4 °C, 45 min; immunoblot; only the target purified
[6] = biological target: His-sumo-tagged human Rad18 S403E (human) (UniProt Q9NS91); assay: pull-down; His-sumo-tagged Rad18 bound to cobalt agarose, incubated with recombinant GST-PCNA purified from E. coli; NETN buffer without EDTA, 5 mM imidazole, 300 mM NaCl, 4 °C, 45 min; both purified

Substance | binding [1] | binding [2] | binding [3] | binding [4] | binding [5] | binding [6]
endogenous PCNA (non-ubiquitinated) (from UniProt P12004 1-261) | binds | no binding | binds | no binding |  | 
endogenous RPA1 (from UniProt P27694 1-616) | binds | binds |  |  | binds | 
recombinant GST-PCNA (from UniProt P12004 1-261) |  |  |  |  |  | no binding
